Reference: the supplement of paper PMC10126150
Values marked as one replicate rest on one cluster of the flow cell; about a third of the high ones do not repeat.

test system: ATP; assay: switch fluorescence ratio, 500 uM ATP over buffer (Cy3 cluster intensity, sum of 5 cycles each) (fold (ratio)); higher = stronger signal-on switching upon ATP binding; sequences stand for … in TCGTCGGCAGCGTCAGATGTGTATAAGAGACAGTTTTTTTTTTTTTTTTTTTTTTTTT…TC; conditions: aptamer strand: ATP DNA aptamer (quencher-CACCTGGGGGAGTATTGCGGAGGAAGG + anchor), 100 nM annealed; ATP concentration: 500 uM; one replicate
Summary of the method: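 Per cluster, summed Cy3 intensity from the target cycles was divided by that from the buffer cycles to give the fluorescence ratio, then averaged per switch-domain sequence. Clusters outside 100-1000 RFU were excluded. The Cy3-labelled switching-strand clusters, on a modified Illumina MiSeq flow-cell, were annealed to 100 nM quencher-labelled ATP aptamer and imaged in selection buffer, then after 15 min with 500 uM ATP at 22 °C, for five cycles with NaOH stripping and re-annealing between them.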
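Further: ATP exposure 15 min at 22 °C before imaging.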

Row | Sequence | switch fluorescence ratio
1 | TTGAGTTAAC | 1.03
2 | TTGATAAAG | 0.989
3 | TTGATAATAT | 0.993
4 | TTGATAGAGC | 1.05
5 | TTGATAGCCA | 0.989
6 | TTGATCAACC | 1.07
7 | TTGATCATGG | 1.05
8 | TTGATGACAA | 0.999
9 | TTGATGCGGG | 1.04
10 | TTGATGGACA | 1.06
11 | TTGATTAGAA | 0.952
12 | TTGATTGAAT | 1.01
13 | TTGATTGCCG | 0.97
14 | TTGCACAATA | 1.05
15 | TTGCACCTTT | 0.989
16 | TTGCATTCC | 1.82
17 | TTGCCACGTT | 0.958
18 | TTGCCACTTT | 1.01
19 | TTGCCAGCAG | 1.01
20 | TTGCCAGGGC | 0.974
21 | TTGCCATTTC | 0.998
22 | TTGCCCTCTT | 0.963
23 | TTGCCCTTGT | 0.973
24 | TTGCCGGAGT | 0.975
25 | TTGCCGTCTT | 0.928
26 | TTGCCTCTCG | 1.03

Row | Sequence | switch fluorescence ratio
27 | TTGCCTTAAG | 0.994
28 | TTGCGAGTGC | 1.08
29 | TTGCGCTTCA | 1.04
30 | TTGCGGACGA | 1
31 | TTGCGGCATT | 0.993
32 | TTGCGGCTAC | 1.01
33 | TTGCGTCAGA | 0.988
34 | TTGCGTTTGT | 1
35 | TTGCTAAATA | 1.07
36 | TTGCTACTAA | 0.996
37 | TTGCTCAATG | 1.02
38 | TTGCTCAGAA | 1.02
39 | TTGCTCGG | 1.02
40 | TTGCTCTTAG | 1.05
41 | TTGCTCTTAT | 1.07
42 | TTGCTGTAC | 1.73
43 | TTGCTTAAG | 1
44 | TTGCTTCCGC | 1.91
45 | TTGCTTCTTG | 1.03
46 | TTGCTTGGT | 1.03
47 | TTGCTTTGAC | 1.03
48 | TTGGACTCAG | 1.08
49 | TTGGACTCT | 0.977
50 | TTGGACTTGT | 0.985
51 | TTGGACTTTG | 0.996
52 | TTGGAGAATA | 0.987

Row | Sequence | switch fluorescence ratio
53 | TTGGAGCTGT | 0.927
54 | TTGGAGTTCT | 1.07
55 | TTGGATACAA | 0.953
56 | TTGGATTAGA | 1.02
57 | TTGGCAGAGT | 1.01
58 | TTGGCAGGAA | 0.998
59 | TTGGCAGTGC | 1.03
60 | TTGGCCAAGA | 1.03
61 | TTGGCCCGAG | 0.979
62 | TTGGCCCTCT | 0.985
63 | TTGGCCGAAA | 1
64 | TTGGCCTAGG | 1.03
65 | TTGGCTAAAT | 1.01
66 | TTGGCTAGGA | 0.928
67 | TTGGCTCAGA | 1.03
68 | TTGGCTCTGC | 0.967
69 | TTGGCTTATG | 1
70 | TTGGCTTATT | 0.993
71 | TTGGCTTGTT | 0.999
72 | TTGGCTTTGC | 0.997
73 | TTGGGAGCCT | 1
74 | TTGGGCAAC | 1.04
75 | TTGGGGCATC | 0.985
76 | TTGGGGCGCT | 1.03
77 | TTGGGTAA | 0.976
78 | TTGGGTAGTT | 0.966

Row | Sequence | switch fluorescence ratio
79 | TTGGGTTCTA | 0.979
80 | TTGGTGATCC | 0.985
81 | TTGGTGATTC | 1.02
82 | TTGGTGCCAT | 1.07
83 | TTGGTGCCGG | 1.01
84 | TTGGTGTAAA | 1.04
85 | TTGGTGTGCT | 0.952
86 | TTGGTTAATC | 1.04
87 | TTGGTTGCCT | 1.01
88 | TTGGTTTGAC | 1.06
89 | TTGTAAT | 0.989
90 | TTGTACCTGT | 0.967
91 | TTGTACGATG | 1
92 | TTGTACGTCG | 1.01
93 | TTGTAGCCGC | 1.08
94 | TTGTCATCGA | 0.949
95 | TTGTCCTGCT | 0.976
96 | TTGTCGGGGT | 0.968
97 | TTGTCGTTAG | 0.996
98 | TTGTCTAATC | 0.999
99 | TTGTGACGGT | 0.976
100 | TTGTGAGACA | 1.02
101 | TTGTGAGAGC | 1.09
102 | TTGTGATTTA | 0.977
103 | TTGTGCTC | 0.973
104 | TTGTGCTTCA | 0.986

Row | Sequence | switch fluorescence ratio
105 | TTGTGGAAGG | 1.04
106 | TTGTGGATGT | 0.957
107 | TTGTGGTGCT | 0.995
108 | TTGTGGTTC | 0.989
109 | TTGTGTACGT | 0.954
110 | TTGTGTTAGA | 1.03
111 | TTGTGTTG | 0.969
112 | TTGTTAATGG | 0.999
113 | TTGTTCGCCA | 1.04
114 | TTGTTCGGC | 0.982
115 | TTGTTCTCAG | 0.941
116 | TTGTTGACCG | 1
117 | TTGTTGACGG | 0.967
118 | TTGTTGAGAC | 1.01
119 | TTGTTGTGTC | 0.979
120 | TTTAAAAAG | 1
121 | TTTAAAGTCA | 1
122 | TTTAAAGTTC | 1.01
123 | TTTAAATCTA | 0.988
124 | TTTAACCCGT | 0.982
125 | TTTAAGCAAT | 2.43
126 | TTTAAGTATA | 0.973
127 | TTTAAGTCGC | 1.02
128 | TTTAATGTAG | 1.06
129 | TTTAATGTCT | 0.966
130 | TTTAATTG | 1.07

Row | Sequence | switch fluorescence ratio
131 | TTTACAGCGC | 1.06
132 | TTTACAGCGG | 1.01
133 | TTTACATAGA | 0.985
134 | TTTACATGTT | 1.06
135 | TTTACCCGTA | 0.984
136 | TTTACGCGTT | 1.03
137 | TTTACGGG | 1.01
138 | TTTACGGGAC | 1.24
139 | TTTACGGTAG | 1.03
140 | TTTACTAATG | 0.98
141 | TTTACTGCAG | 0.959
142 | TTTACTT | 1.03
143 | TTTACTTACA | 1.42
144 | TTTAGAGCCA | 0.991
145 | TTTAGCATTA | 1.1
146 | TTTAGCCGTG | 1.01
147 | TTTAGCGTAG | 1.01
148 | TTTAGCGTCT | 1.03
149 | TTTAGCTGGC | 0.94
150 | TTTAGGATTA | 0.981
151 | TTTAGGCATA | 0.971
152 | TTTAGGTGGA | 1.05
153 | TTTAGTATCT | 1.02
154 | TTTAGTGAC | 1.02
155 | TTTATACGAA | 0.994
156 | TTTATACTCG | 1.03

Row | Sequence | switch fluorescence ratio
157 | TTTATATAGC | 1
158 | TTTATGCGC | 1.03
159 | TTTATTCATG | 1.02
160 | TTTATTCCGA | 1.01
161 | TTTATTGTCG | 1
162 | TTTATTTTGA | 0.99
163 | TTTCAAGTCT | 0.979
164 | TTTCAATAAG | 1
165 | TTTCACCAAA | 0.983
166 | TTTCACGCCT | 1.23
167 | TTTCACGTCT | 0.952
168 | TTTCACTCG | 1.04
169 | TTTCAGCTGA | 0.983
170 | TTTCAGGACG | 1.03
171 | TTTCAGTGAT | 1.02
172 | TTTCAGTTAT | 1.01
173 | TTTCATTAT | 0.988
174 | TTTCCAACGG | 1.58
175 | TTTCCAGGTT | 1.12
176 | TTTCCCGTTA | 1.01
177 | TTTCCGGCTG | 0.979
178 | TTTCCGGTAG | 2.11
179 | TTTCCGGTTC | 1.06
180 | TTTCCGTATT | 2.31
181 | TTTCCTCGAA | 1.12
182 | TTTCCTGCAT | 0.978

Row | Sequence | switch fluorescence ratio
183 | TTTCCTGGT | 1
184 | TTTCCTTGGT | 1.01
185 | TTTCGAACTA | 0.986
186 | TTTCGATGAC | 2.3
187 | TTTCGCACGT | 1.29
188 | TTTCGCTCGG | 1
189 | TTTCGGCCT | 1.07
190 | TTTCGGTCGA | 0.995
191 | TTTCGGTGTC | 1.06
192 | TTTCGTACCG | 1
193 | TTTCGTCACA | 1.53
194 | TTTCGTGGCT | 1.03
195 | TTTCTGAAGT | 1.01
196 | TTTCTTACAG | 1.01
197 | TTTCTTTCCC | 1.09
198 | TTTCTTTGAG | 1.01
199 | TTTCTTTGGC | 0.974
200 | TTTGAAAAAC | 1.02
201 | TTTGAACTGC | 0.937
